Hit rate of the full screen: of about 48,000 compounds, about 1,200 (2.5%) were called active. Inconclusive results, whose numbers are uncertain, are shown with a selection of clear calls.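 Rule for the calls: active = activation of at least 60% and not above a set upper limit (about 1 call in 100 departs from these limits); inconclusive = activation of 40% to 60%, or above that upper limit; inactive = activation under 40%.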 Some structures have more than one record in an assay (separate samples or runs), and their calls can disagree.
Each compound was assayed against Probable G-protein coupled receptor 32 (Homo sapiens) (UniProt O75388) (assay: qHTS for Agonists of Human Resolvin D1 Receptor DRV1). Conditions: CHO-K1 GPR32 beta-arrestin PathHunter luminescence, 90 min; at 76.9 µM; stronger effect = higher value; zero percent set by DMSO-only wells.
How it was run: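 Agonism was scored as beta-arrestin recruitment to ProLink-fused GPR32 in stably transfected CHO-K1 cells, giving a chemiluminescent beta-Gal signal; compounds were incubated 90 min at 37 °C.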
Note: 0% is about no effect.

UniProt O75388, sequence (O75388 whole entry, looked up, the tested form may be a part): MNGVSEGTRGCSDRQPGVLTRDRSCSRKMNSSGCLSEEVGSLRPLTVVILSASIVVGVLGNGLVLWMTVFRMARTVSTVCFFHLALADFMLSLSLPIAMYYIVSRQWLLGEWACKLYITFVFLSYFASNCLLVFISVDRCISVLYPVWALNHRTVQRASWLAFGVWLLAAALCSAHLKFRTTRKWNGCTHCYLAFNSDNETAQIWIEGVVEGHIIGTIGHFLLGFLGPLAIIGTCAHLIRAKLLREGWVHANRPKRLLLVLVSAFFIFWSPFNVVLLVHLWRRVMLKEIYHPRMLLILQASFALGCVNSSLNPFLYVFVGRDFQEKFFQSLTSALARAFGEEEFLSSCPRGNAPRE

Compound | activation
O=C(Nc1ccc(Cl)cc1)Nc1ccc(Cl)c(Cl)c1 | inconclusive: 128%
COc1ccc(OC)c(-n2cnc3cc(C(=O)NC4CCCC4)ccc32)c1 | inactive: 0.44%
O=C(Nc1nnc(S(=O)(=O)N2CCCC2)s1)c1ccc(F)cc1 | active: 64%
CCN(CCCNC(=O)CSc1cc(=O)n(C)c2ccccc12)c1ccccc1 | inactive: -3.4%
Cc1ccc(Cn2nc(C)c(NC(=O)c3cc(-c4ccc(F)cc4)on3)c2C)cc1 | inconclusive: 127%
Cc1nn(C(=O)c2ccccc2)c(C)c1Sc1ccc(Cl)cc1 | active: 107%
CCN(CC)CCOC(=O)C1(C2CCCCC2)CCCCC1 | inconclusive: 200%
CSc1ccc(CCNC(=O)Cn2ncc3c(=O)oc4ccccc4c32)cc1 | active: 67.1%
COc1ccc2nc(NC(=O)c3nc(S(=O)(=O)Cc4ccccc4)ncc3Cl)sc2c1 | inactive: -18.3%
Cc1ccc(NC(=O)CSc2c3c(nc4ccccc24)CCCC3)cc1F | active: 64.6%
CC(C)C1C(=O)Nc2ccc(S(=O)(=O)NCc3ccc(Cl)cc3)cc21 (stereo unspecified) | inconclusive: 277%
CC(C)S(=O)(=O)c1oc(-c2ccc(F)cc2)nc1S(=O)(=O)c1ccccc1 | inactive: -9.92%
Cc1ccc(N(C)S(=O)(=O)c2ccc3[nH]c4c(c3c2)CCCC4)cc1 | active: 109%
COc1ccc(NC(=O)CSc2nnc(-c3ccc(OC)cc3)s2)cc1 | inactive: -4.59%
CCC1CCCCN1C(=O)Cn1c(=O)oc2cc(S(=O)(=O)N3CCCCC3)ccc21 (stereo unspecified) | inconclusive: 51%
Cc1ccc(CNS(=O)(=O)c2ccc3[nH]c4c(c3c2)CCCC4)cc1 | active: 71.9%
Nc1ccc(N2CCN(c3ncc(C(F)(F)F)cc3Cl)CC2)c(C(F)(F)F)c1 | inconclusive: 57.9%
CCC(=O)Nc1ccc2nc(SCCOc3cccc(C)c3)sc2c1 | active: 85.9%
Clc1cccc(-c2noc3ncnc(NC4CCCCC4)c23)c1 | active: 90.6%
CC(=O)c1c(C)n(-c2cccc(C)c2)c2ccc(OC(=O)COc3ccccc3)cc12 | inconclusive: 55.4%
Cc1ccc(NC(=O)CCc2c(C)nn(-c3ccc(N4CCCCC4)nn3)c2C)cc1F | inactive: -9.09%
Cc1noc(NS(=O)(=O)c2ccc(NC(=O)COc3ccccc3Br)cc2)c1C | inconclusive: 51.5%

Compound | activation
CCCOc1ccc(C(=O)Nc2cccc(NC(=O)c3ccc(Cl)cc3Cl)c2)cc1 | inconclusive: 50.5%
O=C(CCSCc1ccccc1Cl)NCCc1ccccc1 | inconclusive: 55.6%
NNCCc1ccccc1 | inconclusive: 50.5%
Cc1scc(CN2CCN(c3ccccc3F)CC2)c1C | inconclusive: 292%
CCOc1ccccc1NC(=O)CCc1c(C)nn(-c2ccc(N3CCCCC3)nn2)c1C | inconclusive: 122%
CN(C)CC/C=C1\c2ccccc2Sc2ccc(Cl)cc21 | inconclusive: 59.3%
CCc1cccc(-n2nnc(-c3nsc(NC(=O)c4cccc(OC)c4)n3)c2C)c1 | inconclusive: 255%
COc1ccc(Br)cc1S(=O)(=O)Nc1cc(-c2cn3ccccc3n2)ccc1C | inactive: 9.38%
Cc1ccc(C2C=C(c3ccccc3)Nc3nc(NS(=O)(=O)c4ccccc4)nn32)cc1 (stereo unspecified) | inconclusive: 129%
CCOc1ccc(Nc2cc(C(=O)NCc3ccccc3Cl)c3ccccc3n2)cc1 | inconclusive: 281%
Cc1ccc(C)c(N2CCN(S(=O)(=O)c3c(C(=O)N4CCC(C)CC4)c(C)n(C)c3C)CC2)c1 | inactive: -33.4%
CCOc1ccc(OCC)c(NC(=O)c2nnn(CC(=O)Nc3cc(Cl)ccc3OC)c2N)c1 | inconclusive: 145%
CN(C(=O)CSc1nc(-c2ccccc2)no1)c1ccc(F)cc1 | inconclusive: 56.1%
Cn1c(=O)c2sccc2n2c(CCCC(=O)Nc3ccc(Oc4ccccc4)cc3)nnc12 | inactive: -11%
CC(=O)Nc1cc(-c2nc3ccccc3s2)ccc1C | inactive: 1.32%
CCn1c(-c2ccc(S(=O)(=O)N3CCOCC3)cc2)csc1=Nc1ccc(C)c(Cl)c1 | inactive: -6.43%
CNC(=O)c1c[nH]c2ccc(S(=O)(=O)Nc3cccc(Cl)c3C)cc2c1=O | inactive: -4.3%
Cc1cccc(N(C)C(=O)CCNS(=O)(=O)c2ccc3c(c2)CCN3C(=O)C2CC2)c1 | active: 70.7%
CCCCCCCCCCCC[N+](C)(C)Cc1ccccc1 | inactive: -16.2%
CCOc1ccc(-c2nnc(SCC(=O)NCc3ccccc3)o2)cc1 | inactive: -5.67%
NC(=O)C1(N2CCCCC2)CCN(CCCN2c3ccccc3CCc3ccc(Cl)cc32)CC1 | inconclusive: 51.1%
O=C(CCNS(=O)(=O)c1ccc2c(c1)CCN2C(=O)C1CC1)Nc1ccc(F)cc1F | active: 84.6%

Compound | activation
O=C(NCCc1csc(-c2ccc(F)cc2)n1)c1ccc(Br)o1 | inconclusive: 144%
CCOc1ccc(NC(=O)CNS(=O)(=O)c2ccc(Br)s2)cc1 | inactive: 41.8%
CCCNCC(O)COc1ccccc1C(=O)CCc1ccccc1 (stereo unspecified) | active: 86.7%
CCOc1ccc(NS(=O)(=O)c2ccc3nc(-c4ccccc4)[nH]c3c2)cc1 | inconclusive: 143%
O=C(Nc1cc(Cl)cc(Cl)c1)c1ccc(F)c(S(=O)(=O)NCc2ccccc2Cl)c1 | inactive: 14%
O=C(Nc1cccc2c(=O)cc(-c3nn[nH]n3)oc12)c1ccc(OCCCCc2ccccc2)cc1 | active: 93.6%
Cc1nn(-c2ccccc2)c2sc(C(=O)Nc3cccc(O)c3)cc12 | inconclusive: 52.7%
Cc1ccc(NS(=O)(=O)c2ccc3c(c2)C(C(C)C)C(=O)N3)cc1C (stereo unspecified) | inconclusive: 130%
CNc1nc2c(c(=O)n(C)c(=O)n2C)n1CC(O)COc1ccc(OC)cc1 (stereo unspecified) | inconclusive: 55.5%
Cc1cc(S(=O)(=O)Nc2ccc(O)c(Sc3nc4ccccc4s3)c2)ccc1Cl | active: 101%
O=C(Nc1cccc(C(F)(F)F)c1)Nc1ccc2snnc2c1 | inconclusive: 147%
COc1ccc(NC(=O)C2CCCN(c3nnc(C)c4c(C)n(-c5ccccc5)nc34)C2)cc1Cl (stereo unspecified) | inactive: 4.46%
Cc1ccc(SCCNC(=O)CN(c2cccc(C)c2C)S(C)(=O)=O)cc1 | active: 75.8%
Cc1ccc2c(CNCCc3ccco3)c(C(=O)O)n(Cc3ccc(F)cc3)c2c1 | inconclusive: 54.9%
CCOC(=O)CCc1c(C)c2cc3c(c(C)c2oc1=O)OCN(CCc1ccccc1OC)C3 | inconclusive: 124%
Cc1ccccc1CNC(=O)c1ccc2[nH]c(C)c(C)c2c1 | inactive: -9.55%
Cc1cccc(C(=O)Nc2nc(-c3nnn(-c4cc(C)ccc4C)c3C)ns2)c1 | inconclusive: 59.5%
CCOc1ccccc1N1CC(c2nc3ccccc3n2CCCOc2ccccc2OC)CC1=O (stereo unspecified) | inactive: -10.8%
CCc1ccc(NC(=O)Cn2nnc(C(=O)NCc3ccco3)c2N)cc1 | inactive: 1.93%
COc1ccc(-c2cc(C(=O)N3CCN(c4ccccc4OC)CC3)c3cc(C(C)C)ccc3n2)cc1 | inactive: 4.16%
Cc1ccc(NC(=O)c2ccc3nc(Cc4ccccc4)oc3c2)cc1F | inconclusive: 54.9%
Cc1nc2cc(-c3cccc(F)c3)nn2c(C)c1CCC(=O)N1CCN(c2ccc(F)cc2)CC1 | inactive: -1.94%

Compound | activation
COc1cccc(-c2nc(SCc3cc(=O)c4cc(Cl)ccc4[nH]3)n[nH]2)c1 | inconclusive: 326%
CC(=O)N1CCCc2cc(S(=O)(=O)N(C)CC(=O)Nc3ccc(F)c(Cl)c3)ccc21 | inconclusive: 53.8%
CCc1ccc(NC(=O)c2cc3ccccn3n2)cc1 | inactive: 35.2%
COc1ccc(C2C(C(=O)Nc3ccccc3)=C(C)Nc3nc(-c4ccccc4)nn32)cc1OC (stereo unspecified) | inconclusive: 123%
CCc1ccc(NS(=O)(=O)c2ccc3[nH]cc(C(=O)NC4CCCC4)c(=O)c3c2)cc1 | inconclusive: 208%
Nc1nc(=S)c2[nH]cnc2[nH]1 | inactive: -50.8%
CNS(=O)(=O)c1cn(CC(=O)Nc2ccc(OC)c(Cl)c2)cc1S(=O)(=O)NC | inactive: -3.79%
CC(=O)NCCc1nc2ccccc2n1CCCCOc1ccc(Cl)cc1 | active: 76.5%
CCCCN1CCCc2cc(CN(CCCN3CCOCC3)C(=O)Nc3ccc(CC)cc3)ccc21 | inactive: 13.7%
CC1Cc2cc(S(=O)(=O)NCc3ccc(Cl)cc3)ccc2N1C(=O)C1CCC1 (stereo unspecified) | inconclusive: 58.2%
Cc1ccc(NC(=O)c2cnc3cc(C)ccn3c2=O)c(C)c1 | inactive: -1.15%
Clc1cccc(-n2ncc3c(NC4CCCCCC4)ncnc32)c1 | inconclusive: 126%
CCc1ccc(CNC(=O)c2cc3cc4ccc(OC)cc4nc3o2)cc1 | inconclusive: 52.7%
COc1ccc(-c2cc(C(=O)NCc3ccc(C)cc3)c3cc(C(C)C)ccc3n2)cc1 | inactive: -14.3%
Cc1cc(S(=O)(=O)NCCc2csc(-c3cccc(F)c3)n2)ccc1F | inconclusive: 123%
C[N+](C)(C)CC[N+]1(C)Cc2c(Cl)c(Cl)c(Cl)c(Cl)c2C1 | inconclusive: 59.3%
CC(C)c1ccc(C(=O)CC2(O)C(=O)N(CCc3ccccc3)c3ccc(Cl)cc32)cc1 (stereo unspecified) | inactive: -1.81%
CCc1ccc(C(=O)c2cn(CC(=O)Nc3cc(C)ccc3C)c3nc(C)ccc3c2=O)cc1 | inconclusive: 53.2%
Cc1cc2ccccc2n1-c1ccc(C(=O)N2CCC(C(=O)NCc3ccc(Cl)cc3)CC2)s1 | inactive: -13.1%
CCC(C(=O)Nc1cc(OC)cc(OC)c1)n1nc(-c2ccc(C)c(C)c2)ccc1=O (stereo unspecified) | inactive: -22.7%

Reference: PubChem BioAssay AID1346428 (National Center for Advancing Translational Sciences (NCATS), 2018)
